# The other results are listed elsewhere or left out.
# Legend:
# Assay in all cases: glycan array binding signal (z-score within array); higher = stronger binding
# Conditions in all cases: glycan notation: IUPAC condensed, linker removed
# [1] = molecular target: Neu5Ac(a2-6)Gal(b1-4)GlcNAc(b1-2)[Neu5Ac(a2-6)Gal(b1-4)GlcNAc(b1-6)]Man(a1-6)[Neu5Ac(a2-6)Gal(b1-4)GlcNAc(b1-2)Man(a1-3)][GlcNAc(b1-4)]Man(b1-4)GlcNAc(b1-4)GlcNAc
# Method in brief: (§1)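 Glycan array data came from 3228 arrays in the Consortium for Functional Glycomics database, and only arrays with an available protein sequence were kept. Glycan names were put into IUPAC-condensed notation, and columns mapping to the same glycan were averaged. The binding signal is a within-array Z-score, averaged across arrays of one protein sequence run at different concentrations or buffers and across linkers. A negative Z-score can be read as non-binding.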
# [2] = molecular target: Neu5Ac(a2-6)Gal(b1-4)GlcNAc(b1-3)Gal(b1-3)GlcNAc
# Method in brief: as §1
# [3] = molecular target: Neu5Ac(a2-6)Gal(b1-4)GlcNAc(b1-3)Gal(b1-4)GlcNAc
# Method in brief: as §1
# [4] = molecular target: Neu5Ac(a2-6)Gal(b1-4)GlcNAc(b1-3)Gal(b1-4)GlcNAc(b1-2)Man(a1-3)[Neu5Ac(a2-6)Gal(b1-4)GlcNAc(b1-3)Gal(b1-4)GlcNAc(b1-2)Man(a1-6)]GalNAc
# Method in brief: as §1
# [5] = molecular target: Neu5Ac(a2-6)Gal(b1-4)GlcNAc(b1-3)Gal(b1-4)GlcNAc(b1-3)Gal(b1-4)GlcNAc
# Method in brief: as §1
# [6] = molecular target: Neu5Ac(a2-6)Gal(b1-4)GlcNAc(b1-3)Gal(b1-4)GlcNAc(b1-3)Gal(b1-4)GlcNAc(b1-2)Man(a1-3)[Neu5Ac(a2-6)Gal(b1-4)GlcNAc(b1-3)Gal(b1-4)GlcNAc(b1-3)Gal(b1-4)GlcNAc(b1-2)Man(a1-6)]GalNAc
# Method in brief: as §1
# [7] = molecular target: Neu5Ac(a2-6)Gal(b1-4)GlcNAc(b1-3)Gal(b1-4)GlcNAc(b1-3)GalNAc
# Method in brief: as §1
# [8] = molecular target: Neu5Ac(a2-6)Gal(b1-4)GlcNAc(b1-3)Gal(b1-4)GlcNAc(b1-3)[Neu5Ac(a2-6)Gal(b1-4)GlcNAc(b1-3)Gal(b1-4)GlcNAc(b1-6)]GalNAc
# Method in brief: as §1
# [9] = molecular target: Neu5Ac(a2-6)Gal(b1-4)GlcNAc(b1-3)Gal(b1-4)GlcNAc(b1-6)[Gal(b1-3)]GalNAc
# Method in brief: as §1
# [10] = molecular target: Neu5Ac(a2-6)Gal(b1-4)GlcNAc(b1-3)Gal(b1-4)[Fuc(a1-3)]GlcNAc(b1-3)Gal(b1-4)[Fuc(a1-3)]GlcNAc
# Method in brief: as §1
# [11] = molecular target: Neu5Ac(a2-6)Gal(b1-4)GlcNAc(b1-3)GalNAc
# Method in brief: as §1
# [12] = molecular target: Neu5Ac(a2-6)Gal(b1-4)GlcNAc(b1-3)[Neu5Ac(a2-6)Gal(b1-4)GlcNAc(b1-6)]GalNAc
# Method in brief: as §1
# [13] = molecular target: Neu5Ac(a2-6)Gal(b1-4)GlcNAc(b1-6)GalNAc
# Method in brief: as §1
# [14] = molecular target: Neu5Ac(a2-6)Gal(b1-4)GlcNAc(b1-6)[Gal(b1-3)GlcNAc(b1-3)]Gal(b1-4)Glc
# Method in brief: as §1
# [15] = molecular target: Neu5Ac(a2-6)Gal(b1-4)GlcNAc(b1-6)[Gal(b1-3)]GalNAc
# Method in brief: as §1
# [16] = molecular target: Neu5Ac(a2-6)Gal(b1-4)GlcNAc6S
# Method in brief: as §1
# Neu5Ac(a2-6)GalNAc = molecular target: Neu5Ac(a2-6)GalNAc
# Method in brief: as §1
# [17] = molecular target: Neu5Ac(a2-6)GalNAc(b1-4)GlcNAc
# Method in brief: as §1
# [18] = molecular target: Neu5Ac(a2-6)GalNAc(b1-4)GlcNAc6S
# Method in brief: as §1
# [19] = molecular target: Neu5Ac(a2-6)GlcNAc(b1-4)GlcNAc
# Method in brief: as §1
# [20] = molecular target: Neu5Ac(a2-6)GlcNAc(b1-4)GlcNAc(b1-4)GlcNAc
# Method in brief: as §1
# Neu5Ac(a2-8)Neu5Ac = molecular target: Neu5Ac(a2-8)Neu5Ac
# Method in brief: as §1
# [21] = molecular target: Neu5Ac(a2-8)Neu5Ac(a2-3)Gal(b1-3)GalNAc(b1-4)[Neu5Ac(a2-3)]Gal(b1-4)Glc
# Method in brief: as §1
# [22] = molecular target: Neu5Ac(a2-8)Neu5Ac(a2-3)Gal(b1-3)GalNAc(b1-4)[Neu5Ac(a2-8)Neu5Ac(a2-3)]Gal(b1-4)Glc
# Method in brief: as §1
# [23] = molecular target: Neu5Ac(a2-8)Neu5Ac(a2-3)Gal(b1-4)Glc
# Method in brief: as §1
# [24] = molecular target: Neu5Ac(a2-8)Neu5Ac(a2-3)Gal(b1-4)GlcNAc
# Method in brief: as §1
# [25] = molecular target: Neu5Ac(a2-8)Neu5Ac(a2-3)[Gal(b1-3)GalNAc(b1-4)]Gal(b1-4)Glc
# Method in brief: as §1
# [26] = molecular target: Neu5Ac(a2-8)Neu5Ac(a2-3)[GalNAc(b1-4)]Gal(b1-4)Glc
# Method in brief: as §1
# [27] = molecular target: Neu5Ac(a2-8)Neu5Ac(a2-8)Neu5Ac
# Method in brief: as §1
# [28] = molecular target: Neu5Ac(a2-8)Neu5Ac(a2-8)Neu5Ac(a2-3)Gal(b1-4)Glc
# Method in brief: as §1
# [29] = molecular target: Neu5Ac(a2-8)Neu5Ac(a2-8)Neu5Ac(a2-3)[Gal(b1-3)GalNAc(b1-4)]Gal(b1-4)Glc
# Method in brief: as §1
# [30] = molecular target: Neu5Ac(a2-8)Neu5Ac(a2-8)Neu5Ac(a2-3)[GalNAc(b1-4)]Gal(b1-4)Glc
# Method in brief: as §1
# [31] = molecular target: Neu5Ac(a2-8)Neu5Ac(a2-8)Neu5Ac(a2-8)Neu5Ac(a2-3)[GalNAc(b1-4)]Gal(b1-4)Glc
# Method in brief: as §1
# [32] = molecular target: Neu5Ac(a2-8)Neu5Gc(a2-3)Gal(b1-4)GlcNAc
# Method in brief: as §1
# Neu5Ac(b1-6)GalNAc = molecular target: Neu5Ac(b1-6)GalNAc
# Method in brief: as §1
# [33] = molecular target: Neu5Ac(b2-6)Gal(b1-4)GlcNAc
# Method in brief: as §1
# Neu5Ac(b2-6)GalNAc = molecular target: Neu5Ac(b2-6)GalNAc
# Method in brief: as §1
# [34] = molecular target: Neu5Ac9Ac(a2-3)Gal(b1-3)GlcNAc
# Method in brief: as §1
# [35] = molecular target: Neu5Ac9Ac(a2-3)Gal(b1-4)GlcNAc
# Method in brief: as §1
# [36] = molecular target: Neu5Ac9Ac(a2-6)Gal(b1-4)GlcNAc
# Method in brief: as §1
# [37] = molecular target: Neu5Gc(a2-3)Gal(b1-3)GlcNAc
# Method in brief: as §1
# [38] = molecular target: Neu5Gc(a2-3)Gal(b1-3)[Fuc(a1-4)]GlcNAc
# Method in brief: as §1
# Neu5Gc(a2-3)Gal(b1-4)Glc = molecular target: Neu5Gc(a2-3)Gal(b1-4)Glc
# Method in brief: as §1
# [39] = molecular target: Neu5Gc(a2-3)Gal(b1-4)GlcNAc
# Method in brief: as §1
# [40] = molecular target: Neu5Gc(a2-3)Gal(b1-4)GlcNAc(b1-3)Gal(b1-4)GlcNAc(b1-2)Man(a1-3)[Neu5Gc(a2-3)Gal(b1-4)GlcNAc(b1-3)Gal(b1-4)GlcNAc(b1-2)Man(a1-6)]Man(b1-4)GlcNAc(b1-4)GlcNAc
# Method in brief: as §1
# [41] = molecular target: Neu5Gc(a2-3)Gal(b1-4)[Fuc(a1-3)]GlcNAc
# Method in brief: as §1
# [42] = molecular target: Neu5Gc(a2-6)Gal(b1-4)GlcNAc
# Method in brief: as §1
# Neu5Gc(a2-6)GalNAc = molecular target: Neu5Gc(a2-6)GalNAc
# Method in brief: as §1
# [43] = molecular target: Neu5Gc(a2-8)Neu5Ac(a2-3)Gal(b1-4)GlcNAc
# Method in brief: as §1
# [44] = molecular target: Neu5Gc(a2-8)Neu5Gc(a2-3)Gal(b1-4)GlcNAc
# Method in brief: as §1
# [45] = molecular target: Neu5Gc(a2-8)Neu5Gc(a2-3)Gal(b1-4)GlcNAc(b1-3)Gal(b1-4)GlcNAc
# Method in brief: as §1
# [46] = molecular target: Neu5Gc(a2-8)Neu5Gc(a2-6)Gal(b1-4)GlcNAc
# Method in brief: as §1
# [47] = molecular target: Neu5Gc(b2-6)Gal(b1-4)GlcNAc
# Method in brief: as §1
binder,measurement,setting,value
GSL-I (Griffonia simplicifolia) (protein) FNLPNFWSDVKDNIIFQGDANTTAGTLQLCKTNQYGNPLQYRAGRALYSDPVQLWDNKTGSVASFYTEFTFFLKITGDGPADGLAFFLAPPDSDVKDAGAYLGLFNKSTATQPSKNQVVAVEFDTWKNTDFPEPSYRHIGINVNSIVSVATKRWEDSDIFSGKIATARISYDGSAKILTVVLSYPDGADYILSHSVDLSKNLPNPIRVGISASTGANQFLTVYVLSWRFSSALQSTSVNAAMGPEIIRTVV,glycan array binding signal (z-score),[1],-0.251
same,glycan array binding signal (z-score),[2],-0.222
same,glycan array binding signal (z-score),[3],-0.179
same,glycan array binding signal (z-score),[4],-0.064
same,glycan array binding signal (z-score),[5],-0.169
same,glycan array binding signal (z-score),[6],0.729
same,glycan array binding signal (z-score),[7],-0.339
same,glycan array binding signal (z-score),[8],0.97
same,glycan array binding signal (z-score),[9],-0.048
same,glycan array binding signal (z-score),[10],-0.218
same,glycan array binding signal (z-score),[11],-0.128
same,glycan array binding signal (z-score),[12],-0.198
same,glycan array binding signal (z-score),[13],-0.215
same,glycan array binding signal (z-score),[14],-0.211
same,glycan array binding signal (z-score),[15],-0.233
same,glycan array binding signal (z-score),[16],-0.208
same,glycan array binding signal (z-score),Neu5Ac(a2-6)GalNAc,-0.113
same,glycan array binding signal (z-score),[17],-0.169
same,glycan array binding signal (z-score),[18],-0.271
same,glycan array binding signal (z-score),[19],-0.054
same,glycan array binding signal (z-score),[20],-0.225
same,glycan array binding signal (z-score),Neu5Ac(a2-8)Neu5Ac,-0.184
same,glycan array binding signal (z-score),[21],-0.326
same,glycan array binding signal (z-score),[22],-0.178
same,glycan array binding signal (z-score),[23],-0.242
same,glycan array binding signal (z-score),[24],-0.263
same,glycan array binding signal (z-score),[25],-0.217
same,glycan array binding signal (z-score),[26],-0.186
same,glycan array binding signal (z-score),[27],-0.197
same,glycan array binding signal (z-score),[28],-0.235
same,glycan array binding signal (z-score),[29],-0.172
same,glycan array binding signal (z-score),[30],-0.104
same,glycan array binding signal (z-score),[31],-0.176
same,glycan array binding signal (z-score),[32],-0.15
same,glycan array binding signal (z-score),Neu5Ac(b1-6)GalNAc,-0.325
same,glycan array binding signal (z-score),[33],-0.218
same,glycan array binding signal (z-score),Neu5Ac(b2-6)GalNAc,-0.213
same,glycan array binding signal (z-score),[34],-0.276
same,glycan array binding signal (z-score),[35],0.231
same,glycan array binding signal (z-score),[36],-0.275
same,glycan array binding signal (z-score),[37],-0.164
same,glycan array binding signal (z-score),[38],-0.21
same,glycan array binding signal (z-score),Neu5Gc(a2-3)Gal(b1-4)Glc,-0.213
same,glycan array binding signal (z-score),[39],-0.244
same,glycan array binding signal (z-score),[40],-0.241
same,glycan array binding signal (z-score),[41],-0.153
same,glycan array binding signal (z-score),[42],-0.201
same,glycan array binding signal (z-score),Neu5Gc(a2-6)GalNAc,-0.124
same,glycan array binding signal (z-score),[43],-0.236
same,glycan array binding signal (z-score),[44],-0.296
same,glycan array binding signal (z-score),[45],-0.258
same,glycan array binding signal (z-score),[46],-0.145
same,glycan array binding signal (z-score),[47],-0.099

# Source: the supplement of paper PMC8728848
